# Laboratory results: the supplement of paper PMC8728848
# The other results are listed elsewhere or left out.
# B1: CwpV (Clostridium difficile), B6EFG6 (protein)
# chain: MKIPKKIAAMLTVTMIAGSSTAGIASAQTVATNLTGQERYETAVKISQDGWKNADEVVIVNDSSIADALSATPFAKAKNAPILLTSKDKLNDKTKAEIQRLKAKKVYLIGGTSVLSTNIEKEIKDLKISFERISGAERYQTSLELAKKLDAISDVKKIAVVNGEKGLADAVSVGAPAAQNNMPVILADSKNGTAVADKFIKDAGITQSYVVGGESSISEAVKNKLPNSTRLGGTDRNDTNAKVIKEFYKKTDLKNAYVTKDGMNKQDQLIDALAVGVLGAKNQSPVVLVGKNLSASQKSLVNSKSFDKITKVGGNGNETAFNEMKSLQEVKTVEAKTISELKSAIDKATANDVINFKPTSEVKEAFTIQTDKAVTVNLNGTYTKTVTINMPNGDVNNYAKVDDVVIDDVKDGTFVNYGKITNLKVNDKNGAKIENNSKGEIGSLTVASGASQVKVTNGGKITTVTNNSKGTTIDNKGTISSVKGDNSPTISGNSPSSNSSGGSSSSGGSSGGSSGGSSSSKVGQIKFSATDKQIKMASGDKTVDPSDNTYILKLTNGTVKDGDVKANVKVAGLPSGLDYTAVGNRSANTITITVSGTTSQSIQNDLNNVSVLVKAGAVSGTGATDSIANTTFEIKKYVAAPAVGQLTFDATDKQIKMASGDKTVDPSDDTYVLTLTKGTAKDGDIKANVEVTGLPSGLDYTAEGDSSANTITIPVSGTASPAVQTDLDNVSVLVKAGAVSETTATDSAANATFEVKKYVAPAVGQLTFDATDKQIKMASGDKTVDPSDDTYVLTLTKGTAKDGDIKANVEVTGLPSGLDYTAEGDSSANTITITVSGTASQAVQTDLDNVSVLVKAGAVSETTATDSAANATFEVKKYVAPAIGQLTFDATDKQIKMASGDKTVDPSDDTYVLTLTKGTAKDGDIKANVEVTGLPSGLDYTAEGDSSANTITITVSGTASQAVQTDLDNVSVLVKAGAVSETTATDSAANATFEVKKHASDPISTIGKISSGLSSLFNILK
# Experiments:
# Assay in all cases: glycan array binding signal (z-score within array); higher = stronger binding
# Conditions in all cases: glycan notation: IUPAC condensed, linker removed
# [1] = biological target: Fuc(a1-2)Gal(b1-4)[Fuc(a1-3)]GlcNAc(b1-2)[Fuc(a1-2)Gal(b1-4)[Fuc(a1-3)]GlcNAc(b1-4)]Man(a1-3)[Fuc(a1-2)Gal(b1-4)[Fuc(a1-3)]GlcNAc(b1-2)Man(a1-6)]Man(b1-4)GlcNAc(b1-4)GlcNAc
# Outline: (§1)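 Glycan array data came from 3228 arrays in the Consortium for Functional Glycomics database, and only arrays with an available protein sequence were kept. Glycan names were put into IUPAC-condensed notation, and columns mapping to the same glycan were averaged. The binding signal is a within-array Z-score, averaged across arrays of one protein sequence run at different concentrations or buffers and across linkers. A negative Z-score can be read as non-binding.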
# [2] = biological target: Fuc(a1-2)Gal(b1-4)[Fuc(a1-3)]GlcNAc(b1-3)Gal(b1-4)[Fuc(a1-3)]GlcNAc
# Outline: as §1
# [3] = biological target: Fuc(a1-2)Gal(b1-4)[Fuc(a1-3)]GlcNAc(b1-3)Gal(b1-4)[Fuc(a1-3)]GlcNAc(b1-3)Gal(b1-4)[Fuc(a1-3)]GlcNAc
# Outline: as §1
# [4] = biological target: Fuc(a1-2)Gal(b1-4)[Fuc(a1-3)]GlcNAc(b1-3)GalNAc
# Outline: as §1
# Fuc(a1-2)Gal6S(b1-4)Glc = biological target: Fuc(a1-2)Gal6S(b1-4)Glc
# Outline: as §1
# [5] = biological target: Fuc(a1-2)Gal6S(b1-4)Glc6S
# Outline: as §1
# [6] = biological target: Fuc(a1-2)Gal6S(b1-4)GlcNAc
# Outline: as §1
# Fuc(a1-2)[Gal(a1-3)]Gal = biological target: Fuc(a1-2)[Gal(a1-3)]Gal
# Outline: as §1
# [7] = biological target: Fuc(a1-2)[Gal(a1-3)]Gal(b1-3)GlcNAc
# Outline: as §1
# [8] = biological target: Fuc(a1-2)[Gal(a1-3)]Gal(b1-3)GlcNAc(b1-2)Man(a1-3)[Fuc(a1-2)[Gal(a1-3)]Gal(b1-3)GlcNAc(b1-2)Man(a1-6)]Man(b1-4)GlcNAc(b1-4)GlcNAc
# Outline: as §1
# [9] = biological target: Fuc(a1-2)[Gal(a1-3)]Gal(b1-3)GlcNAc(b1-3)GalNAc
# Outline: as §1
# [10] = biological target: Fuc(a1-2)[Gal(a1-3)]Gal(b1-4)Glc
# Outline: as §1
# [11] = biological target: Fuc(a1-2)[Gal(a1-3)]Gal(b1-4)GlcNAc
# Outline: as §1
# [12] = biological target: Fuc(a1-2)[Gal(a1-3)]Gal(b1-4)GlcNAc(b1-2)Man(a1-3)[Fuc(a1-2)[Gal(a1-3)]Gal(b1-4)GlcNAc(b1-2)Man(a1-6)]Man(b1-4)GlcNAc(b1-4)GlcNAc
# Outline: as §1
# [13] = biological target: Fuc(a1-2)[Gal(a1-3)]Gal(b1-4)GlcNAc(b1-2)Man(a1-3)[Fuc(a1-2)[Gal(a1-3)]Gal(b1-4)GlcNAc(b1-2)Man(a1-6)]Man(b1-4)GlcNAc(b1-4)[Fuc(a1-6)]GlcNAc
# Outline: as §1
# [14] = biological target: Fuc(a1-2)[Gal(a1-3)]Gal(b1-4)GlcNAc(b1-3)GalNAc
# Outline: as §1
# [15] = biological target: Fuc(a1-2)[Gal(a1-3)]Gal(b1-4)[Fuc(a1-3)]Glc
# Outline: as §1
# [16] = biological target: Fuc(a1-2)[Gal(a1-3)]Gal(b1-4)[Fuc(a1-3)]GlcNAc
# Outline: as §1
# [17] = biological target: Fuc(a1-2)[Gal(a1-3)]Gal(b1-4)[Fuc(a1-3)]GlcNAc(b1-3)GalNAc
# Outline: as §1
# [18] = biological target: Fuc(a1-2)[Gal(a1-4)]Gal(b1-4)GlcNAc
# Outline: as §1
# [19] = biological target: Fuc(a1-2)[GalNAc(a1-3)]Gal
# Outline: as §1
# [20] = biological target: Fuc(a1-2)[GalNAc(a1-3)]Gal(b1-3)GalNAc(a1-3)[Fuc(a1-2)]Gal(b1-4)GlcNAc
# Outline: as §1
# [21] = biological target: Fuc(a1-2)[GalNAc(a1-3)]Gal(b1-3)GlcNAc
# Outline: as §1
# [22] = biological target: Fuc(a1-2)[GalNAc(a1-3)]Gal(b1-3)GlcNAc(b1-2)Man(a1-3)[Fuc(a1-2)[GalNAc(a1-3)]Gal(b1-3)GlcNAc(b1-2)Man(a1-6)]Man(b1-4)GlcNAc(b1-4)GlcNAc
# Outline: as §1
# [23] = biological target: Fuc(a1-2)[GalNAc(a1-3)]Gal(b1-3)GlcNAc(b1-3)GalNAc
# Outline: as §1
# [24] = biological target: Fuc(a1-2)[GalNAc(a1-3)]Gal(b1-4)Glc
# Outline: as §1
# [25] = biological target: Fuc(a1-2)[GalNAc(a1-3)]Gal(b1-4)GlcNAc
# Outline: as §1
# [26] = biological target: Fuc(a1-2)[GalNAc(a1-3)]Gal(b1-4)GlcNAc(b1-2)Man(a1-3)[Fuc(a1-2)[GalNAc(a1-3)]Gal(b1-4)GlcNAc(b1-2)Man(a1-6)]Man(b1-4)GlcNAc(b1-4)GlcNAc
# Outline: as §1
# [27] = biological target: Fuc(a1-2)[GalNAc(a1-3)]Gal(b1-4)GlcNAc(b1-3)Gal(b1-4)GlcNAc
# Outline: as §1
# [28] = biological target: Fuc(a1-2)[GalNAc(a1-3)]Gal(b1-4)GlcNAc(b1-3)Gal(b1-4)GlcNAc(b1-3)Gal(b1-4)GlcNAc
# Outline: as §1
binder,measurement,setting,value
B1,glycan array binding signal (z-score),[1],0.255
same,glycan array binding signal (z-score),[2],-0.02
same,glycan array binding signal (z-score),[3],-0.232
same,glycan array binding signal (z-score),[4],0.596
same,glycan array binding signal (z-score),Fuc(a1-2)Gal6S(b1-4)Glc,-0.055
same,glycan array binding signal (z-score),[5],-0.073
same,glycan array binding signal (z-score),[6],-0.297
same,glycan array binding signal (z-score),Fuc(a1-2)[Gal(a1-3)]Gal,-0.323
same,glycan array binding signal (z-score),[7],-0.335
same,glycan array binding signal (z-score),[8],-0.145
same,glycan array binding signal (z-score),[9],-0.264
same,glycan array binding signal (z-score),[10],-0.278
same,glycan array binding signal (z-score),[11],-0.267
same,glycan array binding signal (z-score),[12],-0.147
same,glycan array binding signal (z-score),[13],0.139
same,glycan array binding signal (z-score),[14],-0.279
same,glycan array binding signal (z-score),[15],-0.334
same,glycan array binding signal (z-score),[16],-0.324
same,glycan array binding signal (z-score),[17],0.41
same,glycan array binding signal (z-score),[18],1.1
same,glycan array binding signal (z-score),[19],-0.307
same,glycan array binding signal (z-score),[20],-0.257
same,glycan array binding signal (z-score),[21],-0.304
same,glycan array binding signal (z-score),[22],-0.269
same,glycan array binding signal (z-score),[23],0.024
same,glycan array binding signal (z-score),[24],-0.325
same,glycan array binding signal (z-score),[25],-0.318
same,glycan array binding signal (z-score),[26],-0.032
same,glycan array binding signal (z-score),[27],0.349
same,glycan array binding signal (z-score),[28],-0.092
